Reference: article PMC4336329 (PLoS ONE, 2015)
The campaign covered roughly 310,000 compounds. About 2,200 (0.71%) showed an effect of 50% or more. The effect is printed as a negative number. Some of the results follow.

biological target: human ether-à-go-go-related gene (hERG) potassium channel (human, UniProt Q12809); assay: primary screen, population patch clamp on CHO cells stably expressing hERG
Sequence (Q12809 whole entry, looked up): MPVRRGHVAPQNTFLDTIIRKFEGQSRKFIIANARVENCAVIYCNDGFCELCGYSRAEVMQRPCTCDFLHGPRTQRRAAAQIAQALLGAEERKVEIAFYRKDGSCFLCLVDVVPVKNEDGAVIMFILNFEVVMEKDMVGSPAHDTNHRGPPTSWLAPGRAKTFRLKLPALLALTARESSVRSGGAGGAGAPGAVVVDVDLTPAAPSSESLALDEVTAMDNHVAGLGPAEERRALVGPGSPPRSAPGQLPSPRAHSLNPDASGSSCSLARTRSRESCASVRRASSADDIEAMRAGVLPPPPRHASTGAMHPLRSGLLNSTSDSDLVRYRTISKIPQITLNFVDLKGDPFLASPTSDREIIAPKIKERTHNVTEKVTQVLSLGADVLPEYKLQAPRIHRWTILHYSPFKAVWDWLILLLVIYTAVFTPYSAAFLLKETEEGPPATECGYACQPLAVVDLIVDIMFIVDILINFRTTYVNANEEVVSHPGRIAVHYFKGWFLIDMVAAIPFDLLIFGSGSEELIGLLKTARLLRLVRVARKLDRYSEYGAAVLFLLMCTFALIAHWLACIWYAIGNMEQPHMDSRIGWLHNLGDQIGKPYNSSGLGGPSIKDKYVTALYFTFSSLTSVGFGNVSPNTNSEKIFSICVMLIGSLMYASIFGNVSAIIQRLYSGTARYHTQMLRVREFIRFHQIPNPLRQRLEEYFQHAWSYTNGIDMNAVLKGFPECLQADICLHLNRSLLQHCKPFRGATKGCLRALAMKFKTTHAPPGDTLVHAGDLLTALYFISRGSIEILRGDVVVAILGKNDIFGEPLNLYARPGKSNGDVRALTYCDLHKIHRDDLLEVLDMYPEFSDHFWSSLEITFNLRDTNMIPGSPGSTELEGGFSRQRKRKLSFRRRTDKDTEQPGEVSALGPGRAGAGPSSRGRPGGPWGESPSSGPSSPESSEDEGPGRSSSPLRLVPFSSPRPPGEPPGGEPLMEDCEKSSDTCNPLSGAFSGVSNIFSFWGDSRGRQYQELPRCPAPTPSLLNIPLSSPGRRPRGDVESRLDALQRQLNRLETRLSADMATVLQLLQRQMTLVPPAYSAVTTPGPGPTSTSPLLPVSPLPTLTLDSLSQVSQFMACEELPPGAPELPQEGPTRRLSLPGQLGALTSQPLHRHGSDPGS

Row | SMILES | hERG current change (%, negative = inhibition) at 1uM [%]
1 | CS(=O)(=O)NCCCNc1c(Cl)cccc1[N+](=O)[O-] | -2.75
2 | COc1ccc(Cl)cc1Nc1nc(C)nc2c1nnn2Cc1ccccc1 | 12.9
3 | Nc1ccc(C(=O)N/N=C/c2ccccc2)cc1 | 2.85
4 | CC(C)c1cc(C(C)C)c(S(=O)(=O)N2CCNCC2)c(C(C)C)c1 | 13.4
5 | COCCCn1c(=O)c2sccc2n2c(CCCC(=O)NCc3ccc(OC)cc3)nnc12 | 10.2
6 | CCOC(=O)N1CCN(C(=O)C2CCC(=O)N(Cc3ccc(Cl)cc3)C2)CC1 (stereo not drawn) | 1.25
7 | Cc1[nH]c2ccccc2c1C(=O)CSC(=S)N1CCOCC1 | 6.63
8 | O=C(COC(=O)COc1ccccc1)NCc1ccco1 | 5.39
9 | COc1cc(OC)c2cc(C(=O)N/N=C/c3ccccc3O)[nH]c2c1 | 11.6
10 | CCCOc1ccc(NC(=O)C2CC(=O)N3CCCN=C3S2)cc1 (stereo not drawn) | -1.16
11 | COc1ccc(/C=C\C(=O)NCC(=O)N/N=C/c2ccc(O)cc2O)cc1 | 1.65
12 | COc1ccc(C)cc1S(=O)(=O)Nc1cc2c3c(c1)CC(=O)N3CCC2 | 9.54
13 | Cc1ccc2c(c1)C(=O)c1ccccc1CS2=O (stereo not drawn) | -3.3
14 | N=c1c2c3c(sc2nc2n1CCCCC2)CCCC3 | -18.7
15 | O=C(NNC(=O)c1ccncc1)Nc1cccc([N+](=O)[O-])c1 | 7.08
16 | C=CCN(C(=O)c1csnn1)C(C(=O)NCc1ccc(F)cc1)c1ccccc1 (stereo not drawn) | 9.41
17 | CC(C)(C)C1CCC2(CC1)NC(=S)N(c1ccccc1)N2 (stereo not drawn) | -0.829
18 | O=C(N/N=C/c1ccc([N+](=O)[O-])o1)c1ccncc1 | 8.16
19 | O=C(CSc1ncn[nH]1)NCc1ccc(Cl)cc1 | 17.5
20 | Cc1cc(C(=O)N2CCc3ccccc3C2)no1 | 8.58
21 | COc1ccc(N2C(=O)CSC23C(=O)Nc2ccccc23)cc1 (stereo not drawn) | 3.9
22 | O=C(NCC(=O)N1CCN(C(=O)c2ccco2)CC1)c1ccc(Br)cc1 | -1.46
23 | Cc1cc(C)c(-c2csc(NC(=O)CCCc3nc4ccccc4c(=O)[nH]3)n2)c(C)c1 | 10.9

Row | SMILES | hERG current change (%, negative = inhibition) at 1uM [%]
24 | O=C(NCCN1CCOCC1)c1ccc(CSc2nc3ccncc3n2Cc2ccc(F)cc2)cc1 | 13.7
25 | COC(=O)C1=C(c2ccc(OC)cc2)OC(=O)C1(C)C | 6.03
26 | COc1cc(C2NC(=O)NC(c3ccccc3)=C2C(C)=O)c(Br)cc1OCC(N)=O (stereo not drawn) | 16.1
27 | COC(=O)c1ccccc1NC(=O)/C=C/c1cc(OC)c(OC)c(OC)c1 | 3.18
28 | CCC/C=C1/CCCOC(C(=O)NCc2ccc(S(C)(=O)=O)cc2)(C(F)(F)F)C1 (stereo not drawn) | 8.45
29 | CCN(CC)S(=O)(=O)c1ccc(C(=O)NCCN(C)C)cc1.Cl | 11.8
30 | Cc1sc2ncnc(Oc3ccc(-n4ccnc4)cc3)c2c1C | -10.2
31 | COc1cc(C(=O)NN(CCC#N)C2=NS(=O)(=O)c3ccccc32)cc(OC)c1OC | 12.6
32 | CCOC(=O)N1CCC(NC(=O)CCC(=O)N2CCOc3ccccc32)CC1 | 6.7
33 | COc1cc(/C=N/NC(N)=O)cc(Br)c1OCc1ccc(C)cc1 | 14.7
34 | O=C(Nc1nccs1)c1ccc(CSc2nnnn2-c2ccccc2)cc1 | 11.2
35 | Nc1nonc1-c1noc(-c2ccccc2)n1 | 9.88
36 | Cc1cnc(C(=O)NCCc2ccc(Cl)cc2)cn1 | 11.7
37 | O=C(N1CCOCC1)N1CCC(NC(=O)C23CC4CC(CC(C4)C2)C3)CC1 | 15.1
38 | COc1ccc(C(=O)N2CCN(c3ccc(F)cc3)CC2)cc1S(=O)(=O)NC1CC1 | -17.3
39 | Cc1ccccc1NC(=S)N1CCOCC1 | 8.93
40 | CS(=O)(=O)O.O.Oc1ccc2c3c1O[C@H]1c4oc5ccccc5c4C[C@@]4(O)[C@@H](C2)N(CC2CC2)CC[C@]314 | -68.1
41 | CC(=O)Oc1cccc(N2C(=O)c3ccc(C(=O)Nc4c[nH]c(=O)[nH]c4=O)cc3C2=O)c1 | 22.4
42 | Cc1cccc(S(=O)(=O)Nc2nc3ccccc3nc2NCc2ccco2)c1 | 15.1
43 | Cc1csc(NC(=O)C2CC(=O)N(Cc3ccco3)C2)n1 (stereo not drawn) | 14.1
44 | Cc1ccc(-c2[nH]nc3c2C(c2ccoc2)C(C#N)=C(N)O3)cc1C (stereo not drawn) | 5.66
45 | COc1c(Cl)cc(Cl)cc1C(=O)Nc1ccc(CN2CCCCC2)cc1 | -27.6
46 | COC(=O)[C@@]1(Cc2ccc(OC)cc2)[C@@H]2[C@@H](CC(=O)[C@H]2CC(=O)C(=O)N(C)C)CN1C(=O)c1ccccc1 | 4.46

Row | SMILES | hERG current change (%, negative = inhibition) at 1uM [%]
47 | Cn1c(=O)[nH]c(=O)c2c1nc(CN1CCN(c3ccccc3F)CC1)n2CCc1ccccc1 | 12.7
48 | COc1nc(-c2ccccc2)ccc1-c1noc(-c2ccccc2F)n1 | 15.8
49 | O=C(NCc1ccccc1)C1=C[C@@H](c2coc3ccccc3c2=O)C[C@@H](OCc2ccc(CO)cc2)O1 | 8.12
50 | COc1ccc(NC(=O)C(=O)NCCN2CCN(C(=O)C(c3ccccc3)c3ccccc3)CC2)cc1 | -20.3
51 | CC(C)C(OC(=O)c1cccs1)C(=O)NC1CCCCC1 (stereo not drawn) | 8.3
52 | Cc1nn(C)c(C)c1CN(C)S(=O)(=O)c1ccc2ccccc2c1 | 0.922
53 | O=C1CCn2nc(-c3ccc(Cl)cc3)cc2N1 | 3.13
54 | COc1ccccc1CC(=O)Nc1ccc(OC)c(OC)c1 | 16.8
55 | COc1ccc(CCC(=O)Nc2cc(Cl)ccc2OC)cc1 | 3.78
56 | O=C(NCC1CCCCC1)c1cccc(-c2ccc(O)cc2)c1 | 18.8
57 | O=C(NCC(c1ccco1)N1CCN(c2ccc(F)cc2)CC1)c1cccs1 (stereo not drawn) | -0.0339
58 | Cc1ccnc2nc(C(=O)OCC(=O)N(CC(C)C)C3CCS(=O)(=O)C3)nn12 (stereo not drawn) | 19.7
59 | COCCOC(=O)c1sc2nc[nH]c(=O)c2c1C | 15.8
60 | Cc1nnc(N2CCC(C(=O)N3CCCCCC3)CC2)c2nn(-c3ccc(Cl)cc3)c(C)c12 | -13.5
61 | CC(C)CCNC(=O)C(c1ccco1)N(Cc1ccc(F)cc1)C(=O)c1snc(C(N)=O)c1N (stereo not drawn) | 3.05
62 | CCC(C)(C)NC(=O)CN(C(=O)c1csnn1)c1cccc2c1CCCC2 | 16.1
63 | O=C1CN(S(=O)(=O)c2ccccc2)c2ccccc2N1 | 12.7
64 | O=C1NC(=Nc2cccnc2)S/C1=C/c1ccc(F)cc1 | 3.23
65 | CCC(C)NC(=O)c1ccc2c(c1)N(Cc1ccccc1)C(=O)CS2 (stereo not drawn) | 6.91
66 | CCn1c(C)nnc1SCC(=O)Nc1cccc(Cl)c1 | 0.21
67 | O=C(COC(=O)c1cc(Br)ccc1O)Nc1ccc2c(c1)OCCO2 | 4.95
68 | CSc1ccc(S(=O)(=O)NCC(=O)OCC(=O)N(C)C2CCCCC2)cc1[N+](=O)[O-] | 2.58
69 | COc1ccc(N=C2SC(C(=O)O)CC(=O)N2C)cc1 (stereo not drawn) | 5.06

Row | SMILES | hERG current change (%, negative = inhibition) at 1uM [%]
70 | Cc1ccc(N(CC(O)CN2CCCC2)S(=O)(=O)c2ccc(C)cc2)cc1.Cl (stereo not drawn) | -81.7
71 | CC(C)c1nc2ccc(C(=O)O)cc2[nH]1 | 6.83
72 | Cc1cc(=O)oc(C)c1C(=O)OCC(=O)c1ccc(Cl)c(Cl)c1 | 3.79
73 | O=C(CN1CCCCCC1)Nc1ccccc1OC(F)F | 7.77
74 | COc1ccc(NC2c3ccccc3C(=O)N2c2ccccn2)cc1 (stereo not drawn) | -3.94
75 | Cc1oc(-c2ccccc2Cl)nc1CN(C)C(C)c1ccon1 (stereo not drawn) | 7.79
76 | CCOC(=O)c1nnn(-c2nonc2N)c1CN(CC)CC | 3.41
77 | CCOCCCNC(=O)c1ccc(/C=C2\Oc3ccccc3N(C)C2=O)cc1 | 19.8
78 | CC(=O)c1c(C)[nH]c(C(=O)NC2CCCCC2)c1C | 9.04
79 | O=C(Cc1ccccc1)NCC(=O)N1CCC2(CC1)NCCc1[nH]cnc12 | 18.4
80 | O=C(c1scc2c1CCCC2)N1CCOCC1 | 6.2
81 | Cc1ccc(C(=O)NC(c2ccccc2)C(Cl)Cl)cc1 (stereo not drawn) | 4.46
82 | Cc1cccc(C(=O)O)c1NC(=O)c1ccc(F)cc1 | 13.4
83 | Cc1ccc(NC(=O)Nc2ccccc2C(=O)NCc2ccccc2)cc1 | 2.53
84 | CC(Sc1nc2c(cc1C#N)CCCCC2)C(=O)O (stereo not drawn) | 12.8
85 | S=C(Nc1ccc2c(c1)OCCO2)Nc1ccc2c(c1)OCO2 | 17.2
86 | O=C1CC(SCc2nc3ccccc3[nH]2)C(=O)N1c1ccc(F)c(Cl)c1 (stereo not drawn) | -2.27
87 | CC(C(=O)O)N1C(=O)CSC1=S (stereo not drawn) | 8.05
88 | CCOC(=O)C(=O)Nc1ccc(OCc2ccccc2)cc1 | 4.71
89 | CCn1c(C)nc2cc(S(=O)(=O)N3CCCCC3)ccc21 | -0.0535
90 | CCOc1ccc(Cn2nnc(C(=O)Nc3ccc(OC)cc3OC)c2N)cc1 | 11.2
